One molecule from patent publication US20060246071A1 (AstraZeneca / MedImmune, published 2006) can be followed below.

This experiment deals with T1, recombinant human Angiopoietin-2 (human, UniProt O15123 19-496).
T1 construct: also called Ang-2; rhAng-2
T1 sequence: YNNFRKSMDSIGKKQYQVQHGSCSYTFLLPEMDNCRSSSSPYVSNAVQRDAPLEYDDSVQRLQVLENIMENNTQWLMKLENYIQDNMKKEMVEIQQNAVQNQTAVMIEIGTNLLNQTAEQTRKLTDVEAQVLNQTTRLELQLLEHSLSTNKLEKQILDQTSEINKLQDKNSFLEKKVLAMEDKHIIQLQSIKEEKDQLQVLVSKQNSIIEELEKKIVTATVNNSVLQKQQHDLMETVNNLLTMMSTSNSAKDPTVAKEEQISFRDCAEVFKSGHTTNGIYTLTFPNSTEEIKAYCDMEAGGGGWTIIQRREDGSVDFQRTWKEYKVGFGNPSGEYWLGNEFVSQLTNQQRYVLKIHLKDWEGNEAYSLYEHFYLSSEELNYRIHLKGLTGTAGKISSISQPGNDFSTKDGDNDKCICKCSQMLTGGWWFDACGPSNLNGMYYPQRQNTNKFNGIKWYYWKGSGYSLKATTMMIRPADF
The experiment can be described thus: competition ELISA, Ang-2 on coated Tie2/Fc. As to the method: 96-well Nunc Immplates™ were coated with 100 μl of recombinant human Tie2/Fc fusion protein (R&D Systems, Inc., Cat. No. 313-TI-100) at 4 μg/ml by incubating overnight at 4° C. The plates were washed four times using Phosphate Buffer Saline (PBS) with a Skan™ Washer 300 station (SKATRON). The wells were blocked by 100 μl of ABX-blocking buffer (0.5% BSA, 0.1% Tween, 0.01% Thimerosal in PBS) for 1 hour.
The plates were incubated at room temperature for two hours before the unbound molecules were washed off. […] After washing twice, the bound Streptavidin was detected by HRP substrate (R&D Systems, Cat. No. DY998). The plates were incubated for 30 minutes before 450 stop solution (100 μl/well, BioFX, Cat #BSTP-0100-01) was added to terminate the reaction. The light absorbance at 450 nm was determined by a Spectramax Plus reader.
Each concentration of the mAb was tested in duplicate. The concentration-response relationship was found by curve fitting using Graphpad Prism™ graphic software (non-linear, Sigmnoid curve). The maximal inhibition (efficacy) and IC₅₀ (potency) were calculated by the software.
In general terms: An ELISA detects its analyte on a solid surface through an enzyme-linked reagent.

B1: mAb 5.78.3 (antibody, V domains shown)
VH: not shown
VL: DIVMTQSPDSLAVSLGERATINCKSSQSVLYSSNNQNFLAWYQQKPGQPPKLLIYWASTRESGVPDRFSGSGSGTDFTLTISSLQAEDVAVYYCHQYYSTPITFGQGTRLEIKR
notes: Variable regions only; hybridoma-derived fully human IgG kappa; also called 5.78.1; x5.78
As for B1, the “Efficacy (ratio of bound Ang-2 with mAbs (30 µg/ml) versus without mAbs)” value worked out at 0.262.
